Test results from publication PMC4336329 (PLoS ONE, 2015).
Hit rate of the full screen: of about 310,000 compounds, about 14,000 (4.5%) showed an effect of 50% or more. Effects have a minus sign here. The list shows a part of the results.

Target: human ether-à-go-go-related gene (hERG) potassium channel (human, UniProt Q12809)
Assay: primary screen, population patch clamp on CHO cells stably expressing hERG
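Note: peak tail current of the secondary pulse compared with the same well before compound.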

Sequence of human ether-à-go-go-related gene (hERG) potassium channel (Q12809 whole entry, looked up): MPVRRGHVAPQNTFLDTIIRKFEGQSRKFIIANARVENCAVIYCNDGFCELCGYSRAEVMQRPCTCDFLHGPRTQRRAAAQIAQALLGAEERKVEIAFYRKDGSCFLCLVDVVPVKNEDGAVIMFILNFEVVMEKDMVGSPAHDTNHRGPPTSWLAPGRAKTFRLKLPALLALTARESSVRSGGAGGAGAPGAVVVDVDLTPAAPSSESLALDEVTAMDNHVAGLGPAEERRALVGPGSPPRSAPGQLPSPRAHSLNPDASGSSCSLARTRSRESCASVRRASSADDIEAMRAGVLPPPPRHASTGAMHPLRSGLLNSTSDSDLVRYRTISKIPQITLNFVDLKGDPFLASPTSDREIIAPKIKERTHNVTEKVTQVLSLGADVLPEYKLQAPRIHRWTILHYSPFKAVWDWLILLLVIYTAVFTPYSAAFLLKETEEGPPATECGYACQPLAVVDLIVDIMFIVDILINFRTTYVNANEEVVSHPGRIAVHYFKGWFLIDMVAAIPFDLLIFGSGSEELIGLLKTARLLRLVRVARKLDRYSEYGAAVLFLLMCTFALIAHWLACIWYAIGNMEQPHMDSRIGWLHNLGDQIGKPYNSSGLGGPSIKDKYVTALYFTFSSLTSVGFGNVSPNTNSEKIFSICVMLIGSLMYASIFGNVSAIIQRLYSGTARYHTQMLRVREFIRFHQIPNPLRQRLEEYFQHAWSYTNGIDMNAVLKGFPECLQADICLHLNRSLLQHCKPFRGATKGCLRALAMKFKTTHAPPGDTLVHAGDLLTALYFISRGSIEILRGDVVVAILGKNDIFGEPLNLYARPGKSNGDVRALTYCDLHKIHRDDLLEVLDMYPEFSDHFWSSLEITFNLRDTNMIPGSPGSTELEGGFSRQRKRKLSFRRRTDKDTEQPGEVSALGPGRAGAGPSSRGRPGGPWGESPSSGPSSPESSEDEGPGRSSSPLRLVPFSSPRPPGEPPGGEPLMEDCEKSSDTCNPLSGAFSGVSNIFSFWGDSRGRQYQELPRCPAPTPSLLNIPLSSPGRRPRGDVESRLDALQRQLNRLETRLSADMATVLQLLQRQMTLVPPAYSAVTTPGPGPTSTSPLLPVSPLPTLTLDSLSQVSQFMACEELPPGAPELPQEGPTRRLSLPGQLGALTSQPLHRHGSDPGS

Row | SMILES | hERG current change (%, negative = inhibition) at 10uM
1 | COc1cccc2cc(C(=O)N3CCN(C/C=C/c4ccccc4)CC3)c(=O)oc12 | -37.7%
2 | O=C(c1ccccc1)c1ccc2c(c1)OCCOCCOCCO2 | -3.96%
3 | CCN1CCN(CC(=O)Nc2ccc(C)c(Br)c2)CC1.Cl | -31.6%
4 | Cc1ccc(CCNS(=O)(=O)c2ccc3c(c2)NC(=O)C(C)C(=O)N3)cc1 (stereo not shown) | 22.7%
5 | O=C(Cn1nnc(-c2ccc(F)cc2)n1)OCC(=O)c1ccccc1 | 9.21%
6 | CCOC(=O)C1=C(COC(=O)C2CC(=O)N(c3ccccc3F)C2)NC(=O)NC1C (stereo not shown) | 2.92%
7 | CCOc1ccc(-n2c(O)c(C=NCCCn3ccnc3)c(=O)[nH]c2=O)cc1 | 21.7%
8 | Cc1ccc(NC(=O)[C@H](C)NC(=O)C2CCN(C(=O)[C@H](CC(C)C)NC(=O)OC(C)(C)C)CC2)cc1 | 2.93%
9 | COC(=O)CN1C(=O)CC(C)(C)Sc2ccccc21 | 10.3%
10 | CN1CCN(Cc2nc3ccccc3n2C)CC1 | -0.083%
11 | COc1cc2c(cc1NC(=O)/C=C/c1cc(OC)c(OC)c(OC)c1)oc1ccccc12 | -5.06%
12 | CN(Cc1ccccc1)S(=O)(=O)c1ccc(N2CCOCC2)nc1 | 3.62%
13 | Cc1cccc(N2CCN(Cc3ccc4c(c3)OCO4)CC2)c1C | 3.83%
14 | Cc1ccc(S(=O)(=O)N(CC(=O)Nc2cccc(N(C)S(C)(=O)=O)c2)c2ccc(Cl)c(Cl)c2)cc1 | 13%
15 | CC(=O)C1=C(O)C(=O)N(c2ccc(O)cc2)C1c1ccccc1F (stereo not shown) | 18.8%
16 | COc1ccc(CC(=O)N2CC3(C)CC2CC(C)(C)C3)cc1 (stereo not shown) | -1.46%
17 | CCCOc1ccc(C(=O)c2nc3c(n2O)CCCCC3)cc1 | -7.16%
18 | C=CCN(CCNP(=O)(OCC)OCC)CP(=O)(OCC)OCC | 6.87%
19 | O=C(CN1CCCC1)N/N=C/c1c(O)ccc2ccccc12 | -3.45%
20 | Cc1ccccc1N1CCN(C(=S)c2ccccc2)CC1 | -0.633%
21 | O=S(=O)(O)c1cc2oc(-c3ccccc3)nc2c2ccccc12 | 27.9%
22 | Cc1ccccc1-c1nc(CS(=O)CC(=O)NCCN2CCN(Cc3ccccc3)CC2)c(C)o1 (stereo not shown) | -58.7%
23 | CC1(C)CC(=O)C(C=Nc2ccc3c(c2)OCO3)=C(O)C1 | -10.2%
24 | COc1ccc(CN2CCN(CCCc3ccccc3)C(CCO)C2)cc1OC (stereo not shown) | -72.8%
25 | CCOC(=O)NC(Nc1cc(C)on1)(C(F)(F)F)C(F)(F)F | 11.7%
26 | Cc1ccccc1NC(=O)CC1SC(=NC2CCCCC2)NC1=O (stereo not shown) | 4.09%
27 | CCn1cc(C(=O)Nc2ncccc2O)c(=O)c2cc(F)c(N3CCN(C(=O)c4ccco4)CC3)cc21 | 1.98%
28 | CC(=O)N1c2ccc(S(=O)(=O)NCCC(=O)N(C)C3CCCCC3)cc2CC1C (stereo not shown) | -0.795%

Row | SMILES | hERG current change (%, negative = inhibition) at 10uM
29 | Cc1ccc(CN2CCN(CC(=O)NC(C)c3ccc4c(c3)OCCO4)C2=O)cc1 (stereo not shown) | -9.8%
30 | Cc1cccc(N2CC(O)(c3cccs3)[N+]3=C2CCCC3)c1.[Br-] (stereo not shown) | -12.3%
31 | N=c1c(C(=O)NCc2ccco2)cc2c(=O)n3ccccc3nc2n1C1CCCC1 | -77%
32 | CN1CCN(c2ccc(C(N)=O)cc2[N+](=O)[O-])CC1 | 7.57%
33 | O=C(NCc1ccc(Cl)cc1)c1ccc(NC(=O)C2CCCO2)cc1 (stereo not shown) | 13.2%
34 | COCCN1Cc2cccc(C(=O)NCCCN3CCCC3=O)c2C1=O | 7.02%
35 | Cc1cccc(N2CCN(C(=O)c3ccc4c(c3)c(C)c(C)n4C)CC2C)c1 (stereo not shown) | 0.358%
36 | CCOC(=O)C1CCCN(C(=O)c2cc(Nc3ccc(OC)c(OC)c3)nc3ccccc23)C1 (stereo not shown) | -14.9%
37 | CNC(=S)Nc1ccc([N+](=O)[O-])cc1 | 11.9%
38 | CN(CC(=O)Nc1ccc(Cl)c(C(F)(F)F)c1)Cc1cc(=O)n2ccsc2n1 | -82.8%
39 | Cc1ccc(N2C(SCC(=O)O)=NC(=Nc3cccc(C)c3)C23CCCC3)cc1.I | 4.25%
40 | CC(C)NS(=O)(=O)c1ccc(OCC(=O)N2CCN(C)CC2)cc1 | 12.3%
41 | CC1CCc2c(sc(NC(=O)COC(=O)c3ccccc3NCc3ccco3)c2C#N)C1 (stereo not shown) | 7.34%
42 | COc1ccc(C)cc1S(=O)(=O)N1CCN(Cc2ccccc2)CC1 | -22.1%
43 | COc1cc(C=O)c(Br)cc1OC1CCCC1 | 6.63%
44 | CCOC(=O)C1(c2ccccc2)CCN(CCC(=O)Nc2ccccc2OC)CC1 | -45.7%
45 | COc1cc(OC)cc(C(=O)NNC(=O)CCOc2ccccc2OC)c1 | 7.89%
46 | COc1ccccc1C(=O)Nc1ccc(OCc2nnc3c4ccccc4c(C)nn23)cc1 | -10%
47 | Cc1ccc(NC(=O)NC2=N/C(=C(/C#N)C(=O)N3CCCC3)c3ccccc32)cc1 | -22.7%
48 | CN(CC(=O)Nc1nc2ccccc2s1)S(=O)(=O)c1ccc(Cl)cc1 | -6.79%
49 | N/C(CS(=O)(=O)c1ccccc1)=N\OC(=O)c1ccc(F)cc1 | -0.547%
50 | COC(=O)c1cccc(C(=O)N2CCCC(CCC(=O)N(C)CCc3ccccn3)C2)c1 (stereo not shown) | -10.3%
51 | CC(=O)NC(Cc1ccccc1C)C(=O)NC1CCN(c2ncccc2[N+](=O)[O-])CC1 (stereo not shown) | -1.73%
52 | Cc1ccc(SCCNC(=O)c2ccc(CN3CCOCC3)cc2)cc1 | -32.6%
53 | COc1cccc(NC(=O)C(c2ccccc2)N2CCCC2)c1 (stereo not shown) | -0.539%
54 | CCN(CC)C(=O)c1sc(NC(=O)c2ccc3c(c2)OCO3)c(C#N)c1C | 4.84%
55 | CC1(c2ccc(Cl)cc2)NC(=O)N(CC(=O)NCc2ccc(F)cc2)C1=O (stereo not shown) | -20.2%
